# Data: the supplement of paper PMC3334620
# In all, about 33,000 sequences were measured (“E-score (-0.5 to 0.5)”: median about -0.012, highest 2% from about 0.29 on). Some of the results follow.
# Target: T1, Ybr033w (UniProt P38073)
# T1 sequence: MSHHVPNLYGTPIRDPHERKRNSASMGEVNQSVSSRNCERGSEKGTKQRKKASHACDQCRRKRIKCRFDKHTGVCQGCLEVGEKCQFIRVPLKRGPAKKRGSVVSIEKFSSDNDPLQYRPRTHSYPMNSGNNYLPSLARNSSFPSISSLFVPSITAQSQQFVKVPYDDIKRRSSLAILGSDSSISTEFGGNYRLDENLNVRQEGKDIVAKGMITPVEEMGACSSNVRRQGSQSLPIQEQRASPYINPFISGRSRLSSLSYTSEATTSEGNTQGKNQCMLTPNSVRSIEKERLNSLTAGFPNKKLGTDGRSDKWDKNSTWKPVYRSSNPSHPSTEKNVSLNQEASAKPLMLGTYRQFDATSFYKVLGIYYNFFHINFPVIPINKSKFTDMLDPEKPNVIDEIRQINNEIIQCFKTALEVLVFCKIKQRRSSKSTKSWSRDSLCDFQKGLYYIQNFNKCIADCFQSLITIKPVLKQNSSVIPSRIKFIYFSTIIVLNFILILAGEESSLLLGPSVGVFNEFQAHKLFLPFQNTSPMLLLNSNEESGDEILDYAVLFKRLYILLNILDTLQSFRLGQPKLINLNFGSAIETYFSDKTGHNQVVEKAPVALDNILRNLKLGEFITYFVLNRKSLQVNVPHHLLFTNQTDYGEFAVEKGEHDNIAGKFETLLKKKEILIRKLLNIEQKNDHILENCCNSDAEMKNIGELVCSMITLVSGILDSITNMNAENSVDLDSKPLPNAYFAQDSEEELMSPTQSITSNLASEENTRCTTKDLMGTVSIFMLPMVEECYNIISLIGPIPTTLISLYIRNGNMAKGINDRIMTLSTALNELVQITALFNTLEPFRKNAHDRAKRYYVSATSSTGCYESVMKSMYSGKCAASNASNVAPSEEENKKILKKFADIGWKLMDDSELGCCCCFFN
# Assay: PBM E-score (8-mer binding enrichment) (E-score (-0.5 to 0.5)); higher = stronger / more preferred TF binding; most listed sequences are background and not binding sites
# Conditions: protein concentration: 200 nM; construct: GST-full length
# Experimental: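 Universal 'all 10-mer' protein binding microarrays (Agilent AMADID 015681) probed with GST-tagged S. cerevisiae TFs (full-length or DBD) made by in vitro transcription/translation (PURExpress), about 100-200 nM. Bound TF was detected with fluorescent anti-GST. Each ungapped 8-mer (which stands for itself and its reverse complement) is scored by the PBM enrichment score (E-score), a modified Wilcoxon-Mann-Whitney statistic from -0.5 to +0.5, computed with the Universal PBM Analysis Suite. Scale: above 0.35 generally sequence-specific binding.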
row,Sequence,PBM E-score
1,CCCCTCAA,-0.187
2,AAGGTGTG,-0.196
3,GGGCTTAC,-0.177
4,ACAGGGCT,-0.224
5,CTACGTCC,-0.241
6,GTACCCCA,-0.0622
7,ACATTACC,-0.0397
8,ATTTAAGA,0.0567
9,ACGTAGCC,-0.252
10,ATACCTTA,0.0128
11,TAAGGCAA,0.0506
12,AGTGTTAG,0.0778
13,TCAGGCCA,-0.0114
14,CCACGGCA,-0.0768
15,AGTCATTG,-0.00289
16,ACAGGGAG,-0.131
17,GGCTGTCA,-0.0424
18,AGTGCAGG,-0.0888
19,CCGAACTC,-0.0175
20,AGATACCA,0.229
21,CCATGTAA,0.0138
22,AGCGGAAA,0.106
23,ACTCTCAT,0.0553
24,ACCAATTG,-0.00748
25,ATCTGCGG,0.0239

row,Sequence,PBM E-score
1,CTCACAGC,-0.138
2,CACCGAAA,0.042
3,ATCCCCAG,-0.153
4,ACGCCTCC,-0.165
5,AGAACCGG,0.0155
6,AAATCCTA,0.126
7,ACTGAAGA,0.0163
8,AGCCGTTG,-0.0509
9,AGGGGGAG,-0.27
10,CCGTTGCC,-0.27
11,CCCGGCGC,-0.245
12,ATCTGAAT,0.138
13,AGAGATTA,0.195
14,ACCCGACG,-0.159
15,GCGCCTAA,-0.0559
16,ACTAACCA,0.11
17,CATAGGAG,-0.103
18,CATGGTGG,-0.102
19,GCAGACCC,-0.343
20,CGTATTCC,-0.01
21,AATCTTAC,0.137
22,AGTCCATA,-0.028
23,CGGCAGCC,-0.213
24,ACTCGGCT,-0.0995
25,GATCCGAC,-0.134

row,Sequence,PBM E-score
1,AGCTTGCA,-0.0609
2,AGTCTTAC,-0.0512
3,ACGTCCGA,0.0242
4,CACGAGCC,-0.141
5,AAGTTTGA,0.115
6,AATCGTGT,0.00705
7,AAGATGTC,0.00552
8,AAGCACAT,-0.0363
9,CTTTCCAA,0.0794
10,AGACGTCA,-0.199
11,AACTCGGA,-0.0656
12,ACAATTTA,0.225
13,AACGCACG,-0.0229
14,TCACACAA,0.126
15,GAATCTGA,-0.0945
16,CTCCAGGC,-0.266
17,CTTGCGGC,0.125
18,GGCAGCAA,-0.13
19,AATCCCGG,0.0331
20,GCGAACGA,0.0835
21,CTTCTGCA,0.0159
22,GGCCGGCC,-0.274
23,ACACCCTC,-0.202
24,ATGCGACA,0.0689
25,CGAGCGAG,0.214

row,Sequence,PBM E-score
1,GTAAGGAA,0.12
2,CCGCTGGA,0.0956
3,CGTAATAC,0.186
4,ACCCCGTG,-0.101
5,ATTATTCG,0.328
6,GTAGCATA,0.124
7,TTAAAAAA,0.306
8,CATGTGCC,-0.194
9,CCGTATCC,-0.00047
10,ATCCACGG,0.0163
11,GTCCCGTA,-0.146
12,CACACTAC,-0.0775
13,AATTTAAC,0.245
14,ATAAACAA,0.326
15,AGTTTGTG,0.049
16,CTCATGAA,0.111
17,AGGGATAT,0.0785
18,CTCCTTCA,-0.121
19,CAGGGGCA,-0.215
20,CCCATGGC,-0.386
21,GTCAAACA,-0.0344
22,AATTTGCA,0.0939
23,GCGTAACA,0.0527
24,ATCAGACA,-0.0197
25,AACTTGCG,-0.00192

row,Sequence,PBM E-score
1,CTAGTTAC,-0.0321
2,GTACATTA,0.17
3,AAGGATTA,0.26
4,AGGTTGAC,-0.0309
5,CAGGTGAG,-0.0825
6,GGCAATGA,-0.132
7,GAGTCGCA,-0.24
8,AAAGTTTC,0.163
9,CTGACTTC,-0.0877
10,GGCCCCAC,-0.303
11,CAAGTACA,0.0873
12,CACGCTGG,-0.188
13,CATCAGGG,-0.172
14,AGCAACCG,-0.0338
15,CCGATCCA,-0.0621
16,AATCGGCC,-0.209
17,ACCCTCCA,-0.225
18,GGTGATTA,0.252
19,AACGGGCT,-0.231
20,ACATATTC,0.178
21,CAGACGGA,-0.0529
22,ACTAGCAT,0.0646
23,AAACCTGT,0.0221
24,AGGCGTAA,0.0823
25,AAGGCATG,0.00861

row,Sequence,PBM E-score
1,CGCATACC,0.0415
2,CTAATAAG,0.128
3,ACCTGCAT,-0.0909
4,AGGCAGTC,-0.143
5,GGTCCGCA,-0.225
6,ATCCTCAT,-0.0549
7,CCAACGTC,-0.0704
8,CCTTCTCC,-0.227
9,AACGAAGC,0.117
10,CGACACGA,0.122
11,CTCAATTA,0.213
12,AGGCCTTG,-0.22
13,AAACAACG,0.15
14,GAGGTCGA,-0.178
15,GTGGATAA,0.169
16,AGAAGCCT,-0.0299
17,CGGCCCGC,-0.23
18,CGGTAGAG,-0.0888
19,AGGCTGGC,-0.183
20,AGTCCATG,-0.126
21,GCTGATCC,-0.0975
22,ACCTGAAC,-0.219
23,AGAATAAC,0.141
24,AAAATATC,0.304
25,CGGTACAA,0.04

row,Sequence,PBM E-score
1,AAGATGGG,-0.169
2,CGTTCTAA,0.0905
3,TCACCCAA,0.0919
4,GCCGTCGA,-0.00647
5,ATTGCCGC,-0.0973
6,ATGGAGGG,-0.186
7,GGCTCCCA,-0.317
8,CAACCACC,0.075
9,AGTACGTC,0.0497
10,ATAGATCG,-0.051
11,CACGCAGC,-0.271
12,AATACTTG,0.131
13,CTCTAAAA,-0.00952
14,CAAGTTAG,0.0992
15,GCAGCTAC,0.095
16,CCCATGCG,-0.144
17,TATATCAA,0.21
18,CGCCTAAA,0.0706
19,AGGTCAGC,0.0524
20,AAGATTTA,0.194
21,ATTGATCA,0.051
22,AGTGACCC,-0.151
